Measured values: patent publication US11339163B2, “BRaf inhibitors and use thereof for treatment of cutaneous reactions” (Lutris Pharma Ltd., priority 2017, dated 2022)
At least one read-out could not be matched to a standard name with certainty.

Tested on: MIA PaCa2 K-ras cells
Experiment: proliferation of MIA PaCa cells (ATPlite)
Assay type: cell-based
Conditions: 72 hours; concentration that provided the highest proliferation (0.002 μM to 10 μM); DMSO calculated as 100%

| SMILES | % proliferation compared to the DMSO control |
| --- | --- |
| Cc1ccc2c(Nc3ccc(I)cc3F)nccc2c1Nc1ncccc1-c1ncnc2[nH]cnc12 [LUT016] | 110% |
| C#Cc1cccc(Nc2nccc3c(Nc4ncccc4-c4ncnc5[nH]cnc45)c(C)ccc23)c1 [LUT012] | 20% |
| Cc1ccc2c(Nc3ccc(F)c(Cl)c3)nccc2c1Nc1ncccc1-c1ncnc2[nH]cnc12 [LUT015] | 29% |
| Cc1ccc2c(Nc3cc(C(C)(C)C)nn3C)nccc2c1Nc1ncccc1-c1ncnc2[nH]cnc12 [LUT013] | 173% |
| Cc1ccc2c(Nc3cccc(OC(F)(F)F)c3)nccc2c1Nc1ncccc1-c1ncnc2[nH]cnc12 [LUT014] | 116% |
| Cc1ccc2c(Nc3cc(O)cc(O)c3)nccc2c1Nc1ncccc1-c1ncnc2[nH]cnc12 [LUT019] | 7% |
| Cc1ccc2c(Nc3ccc(Cl)cc3)nccc2c1Nc1ncccc1-c1ncnc2[nH]cnc12 [Compound C-1] | 30% |
| CCCS(=O)(=O)Nc1ccc(F)c(C(=O)c2c[nH]c3ncc(-c4ccc(Cl)cc4)cc23)c1F [Vemurafenib, reference compound] | 12% |
| Cc1ccc2c(Nc3cccc(S(N)(=O)=O)c3)nccc2c1Nc1ncccc1-c1ncnc2[nH]cnc12 [LUT020] | 12% |
| Cc1ccc2c(Nc3ccc(Cl)c(C(F)(F)F)c3)nccc2c1Nc1ncccc1-c1ncnc2[nH]cnc12 [LUT017] | 174% |
